# From PubChem BioAssay AID686978 (National Center for Advancing Translational Sciences (NCATS), 2013)
# “And” between values parts separate entries of the source, which are not always exact repeats. Identical values can stand only once. The whole screen tested about 420,000 compounds, of which about 64,000 (15%) were called active. Inconclusive means that the source gave no clear call. Such entries were picked first, then a sample of the others. The call rests on the fitted dose curve; in most records, active means well fitted inhibition curve with a large enough effect; inconclusive means small, poorly fitted or top-dose-only effect; inactive means flat fitted curve, though single readings scatter. No potency is given beside an inconclusive call; the fits are too rough.
# Assay: qHTS for Inhibitors of human tyrosyl-DNA phosphodiesterase 1 (TDP1): qHTS in cells in absence of CPT; further: nearly all actives have a fitted effect of over 55% in size
# Settings: DT40 Tdp1-/- hTDP1 cells, no CPT, ATP luminescence, 48 h; activity change, negative = growth inhibition: at 46.2 µM (top of the series)
# How it was run: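 Cells were dispensed at 400 per well, compounds added by pin tool, plates incubated ≥48 hr at 37 °C, then CellTiter-Glo added for 30 min at room temperature before luminescence reading. Line: DT40 Tdp1-/- complemented with hTDP1; camptothecin omitted.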
# On the % scale 0 is the no-effect control and ±100 the full control effect; potency means the concentration at half of the fitted maximal effect; tags describe the fitted curve by direction and shape.
Structure (SMILES),Potency,"activity change, negative = growth inhibition"
Cc1cc(Cl)ccc1C(=O)C1CCCN(C(=O)c2ccc3c(c2)OCO3)C1 (stereo not given),active: 8.2 µM,–
CC(=O)c1ccc(OCCNS(=O)(=O)c2ccc(-n3cnnn3)c(C)c2)cc1,"inconclusive [inhibitor, partial curve]",–
O=C(c1ccoc1)N1CCN(c2cc(-c3ccccc3)nc3cc(-c4ccccc4)nn23)CC1,active: 16.4 µM,–
CCn1c(CSCc2ccc(C)cc2)n[nH]c1=S,"inconclusive [inhibitor, single point]",–
O=C(O)c1cc([N+](=O)[O-])ccc1N1CCCCC1,inactive,–
Cc1c(C(=O)NCc2ccco2)oc2c(F)cccc12,inactive,–
O=C(Cc1cccs1)Nc1cccc(-c2nnc(-c3ccco3)o2)c1,active: 11.6 µM,–
O=c1[nH]cnc2c1ncn2C1CC(O)C(CO)O1 (stereo not given),"inconclusive [inhibitor, partial curve]",–
c1cn(-c2cc(-c3ccc4c(c3)OCO4)ncn2)cn1,inactive,–
CCOc1ccccc1CNC(=O)C(C)n1nc(C)c2c(C)n(-c3ccccc3)nc2c1=O (stereo not given),"inconclusive [inhibitor, partial curve]",–
CC(C)Oc1ccc(C(=O)NC2(C(F)(F)F)N=C3SCCN3C2=O)cc1 (stereo not given),inactive,–
COc1cccc(-c2nc(NCCN3CCOCC3)c3ccccc3n2)c1O,active: 18.4 µM,–
COc1ccc(NC(=O)CN(C)C(=O)CC2CCCC2)cc1,inactive,–
O=C(Nc1ccccc1)/C(=C/c1cccnc1)NC(=O)c1ccccc1,inactive,–
Cc1cc(C)c(S(=O)(=O)Nc2c(C)[nH]c(=O)[nH]c2=O)c(C)c1,active: 23.1 µM,–
Cc1cc(C(=O)NNC(=S)Nc2cccc(C(F)(F)F)c2)nn1C,"inconclusive [inhibitor, single point]",–
CCOC(=O)C1CCN(c2c(Nc3cc(C)cc(C)c3)c(=O)c2=O)CC1,active: 16.4 µM,–
Cc1cccc(C(=O)N2CCc3cc(CNC(=O)c4ccc(Br)o4)ccc32)c1,"inconclusive [inhibitor, single point]",–
COc1cccc(C(c2nnnn2Cc2ccccc2)N2CCN(C(=O)c3ccco3)CC2)c1OC (stereo not given),active: 23.1 µM,–
CCOc1ccccc1NC(=O)C(c1ccccc1)N1CCN(CC(=O)N2CCOCC2)CC1 (stereo not given),inactive,–
CC(C)NC(=O)c1ccc(C(C)C)cc1,–,inconclusive: -10.3% [inhibitor]
O=[N+]([O-])c1ccc(S(=O)(=O)NCc2nc3cccnc3n2Cc2ccccc2Cl)cc1,active: 14.6 µM,–
COc1cc2c(cc1NC(=S)Nc1cccc(C(F)(F)F)c1)oc1ccccc12,active: 29.1 µM,–
O=C(NC1CCCCC1)c1ccc2ccccc2c1,"inconclusive [inhibitor, partial curve]",–
CCOc1cc(N2CCOCC2)c(OCC)cc1NC(=O)COC(=O)c1ccc([N+](=O)[O-])o1,inactive,–

Structure (SMILES),Potency,"activity change, negative = growth inhibition"
CCC(CC)C(=O)Nc1cccc(C(=O)Nc2ccc(S(=O)(=O)Nc3ccc(C)cc3)cc2)c1,"inconclusive [inhibitor, single point]",–
C=CCOC(=O)C1=C[C@@H](c2ccc(Br)cc2)C[C@@H](OCCCCO)O1,inactive,–
COc1ccc(N(CC(=O)NCC2CCCO2)C(=O)CCC(=O)Nc2nccs2)c(OC)c1 (stereo not given),inactive,–
COc1cc2c(cc1OC)C(c1ccccc1C(F)(F)F)CC(=O)N2 (stereo not given),"inconclusive [inhibitor, single point]",–
CCN(C(=O)COC(=O)c1ccccc1NCc1ccco1)c1c(N)n(Cc2ccccc2)c(=O)[nH]c1=O,"inconclusive [inhibitor, single point]",–
Cc1ccc(F)cc1C(=O)N1CCCC1(C)C(=O)NCC(C)C (stereo not given),inactive,–
COc1cccc(C(=O)Nc2ccc(NC(=O)c3ccco3)cn2)c1,–,inconclusive: -33.7% [inhibitor]
Cc1ccc(S(=O)(=O)NCc2ccccc2NS(=O)(=O)c2ccc(C)cc2)cc1,"inconclusive [inhibitor, single point]",–
NS(=O)(=O)c1ccc(CCNC(=O)COC(=O)C2CCC2)cc1,inactive,–
COCc1cc(C)nc2sc(C(=O)Nc3ccc(OC(F)(F)F)cc3)c(N)c12,inactive,–
O=C(CSc1ncn[nH]1)NN(c1ccccc1)c1ccccc1,inactive,–
CCOC(=O)[C@H]1[C@H]2COc3ccc(Br)cc3[C@@H]2N2C(=O)c3ccc(C)cc3NC(=O)[C@@]12C,"inconclusive [inhibitor, single point]",–
COc1ccccc1-c1cnc(C(O)c2ccc(F)cc2C)[nH]1 (stereo not given),"inconclusive [inhibitor, single point]",–
CCOc1cc(C(N)=O)cc(Br)c1OCc1ccccc1,inactive,–
CC[C@]12c3[nH]c4cc(-c5ccco5)ccc4c3CCN1C(=O)[C@@H](CC(=O)NCCc1ccccn1)C[C@@H]2C(=O)N1CCN(C(=O)C2CC2)CC1,–,inconclusive: -33.2% [inhibitor]
COc1ccccc1/C=C/C(=O)NCC(=O)N/N=C/c1ccc(C(=O)O)cc1,inactive,–
CC(=O)c1c(-c2ccccc2)c2cc(Cl)ccc2n(C)c1=O,"inconclusive [inhibitor, single point]",–
CCOC(=O)c1c(C)c(C)n2c1NC(=O)C2,inactive,–
CCc1nn(CCCC(=O)N(C)Cc2ccccc2)c(=O)c2cc3occc3n12,"inconclusive [inhibitor, single point]",–
CC(=O)c1ccc(OCCCC(=O)NC2CCCCC2C)cc1 (stereo not given),"inconclusive [inhibitor, partial curve]",–
Cc1ccc(-c2cc(C(=O)N/N=C/c3c(C)nn(C)c3C)c3ccccc3n2)c(C)c1,"inconclusive [inhibitor, partial curve]",–
O=C(Nc1ccnn1C1CCN(Cc2ccccc2OC(F)F)CC1)c1cccc(F)c1,"inconclusive [inhibitor, single point]",–
OC[C@H]1O[C@@H](c2nc(-c3nc(-c4ccc(F)cc4)no3)cs2)[C@H](O)[C@@H]1O,"inconclusive [inhibitor, single point]",–
Cc1c(C(=O)OCC2CCCCC2)[nH]c2c1C(=O)CC(c1ccc(F)cc1)C2 (stereo not given),"inconclusive [inhibitor, partial curve]",–
O=C(CCSCc1ccccc1Cl)NCc1ccco1,inactive,–

Structure (SMILES),Potency,"activity change, negative = growth inhibition"
Cc1cc(/C=N/Nc2nc(N3CCOCC3)nc(N3CCOCC3)n2)c(C)n1-c1ccccc1,"inconclusive [inhibitor, single point]",–
COc1ccc(-c2csc(Nc3ccc(S(N)(=O)=O)cc3)n2)cc1,"inconclusive [inhibitor, single point]",–
CCc1ccccc1NC(=O)CN(c1cccc(C)c1C)S(C)(=O)=O,inactive,–
O=C(CSc1nncn2c1cc1occc12)Nc1ccccc1C(F)(F)F,"inconclusive [inhibitor, single point]",–
CN(C)c1ccc(/C=C/c2ccc3ccccc3n2)cc1,active: 14.1 µM and active: 11.6 µM,–
COc1cc2c(cc1OC)CN(C(=O)CN1C(=O)NC3(CCCCC3C)C1=O)CC2 (stereo not given),"inconclusive [inhibitor, single point]",–
CC(C)Cc1oc(C(=O)O)cc1CN,"inconclusive [inhibitor, partial curve]",–
O=C(OCC(=O)N1CCOCC1)c1cc(-c2ccccc2)nc2ccccc12,inactive,–
N#Cc1cccc(Nc2ncnc3c2cnn3-c2cccc(Cl)c2)c1,active: 23.1 µM,–
CCOC(=O)C1=CCC(c2cc3ccccc3[nH]2)NC1 (stereo not given),"inconclusive [inhibitor, single point]",–
CC(=O)c1cc(-c2ccccc2)n(CCC(=O)NC2CCCCCCC2)c1C,active: 23.1 µM,–
COc1ccc2c(c1)C(=O)O[C@@H](c1ccccc1)C[C@@H](O)C(=O)CC2,"inconclusive [inhibitor, single point]",–
Nc1cc(S(=O)(=O)Nc2ccccc2Cl)ccc1N1CCOCC1,"inconclusive [inhibitor, single point]",–
Nc1nc(=O)c2ccccc2s1,inactive,–
Cc1ccc(C(C)C)c(OCCCNCc2cccnc2)c1,"inconclusive [inhibitor, single point]",–
Cc1ccc(N(CCC#N)C(=O)COC(=O)C2=COCCO2)cc1,inactive,–
CCOC(=O)c1c(C)[nH]c(CCC(=O)Nc2c(Cl)cc(OC)cc2OC)c1C,"inconclusive [inhibitor, single point]",–
Cc1ccccc1N1CC(C(=O)Nc2ccc(S(=O)(=O)N3CCCCC3)cc2)CC1=O (stereo not given),active: 16.4 µM,–
CCOC(=O)c1c(CN2CCN(c3ccccc3)CC2)oc2ccc(O)cc12,"inconclusive [inhibitor, single point]",–
CCOc1ccc(S(=O)(=O)NCCC(=O)N2CC(C)OC(C)C2)cc1 (stereo not given),inactive,–
COc1ccc(C(CC(=O)N2CCCC(C)C2)c2c(OC)cc(OC)c3ccc(=O)oc23)cc1 (stereo not given),active: 18.4 µM,–
Cc1c(Cl)ccc2c1NC(=O)[C@]21[C@@H]2C(=O)N(Cc3ccccc3)C(=O)[C@@H]2[C@@H]2CCCN21,"inconclusive [inhibitor, single point]",–
COc1ccc(-c2nc(C#N)c(N3CCCCCC3)o2)cc1,active: 17.8 µM,–
Cc1ccnc(NC(=O)c2cccc(S(=O)(=O)N3CCCc4ccccc43)c2)c1,active: 20.6 µM,–
CCc1ccc(S(=O)(=O)c2cnc3ccc(OC)cc3c2N2CCCC(C)C2)cc1 (stereo not given),"inconclusive [inhibitor, single point]",–
